Drawing on PubChem BioAssay AID1963436 (Molecular Pharmacology Branch, DTP, NCI, 2024), this text covers viability, T/C for one molecule.

The source holds more than one record for some entries. Only these are listed. The source may hold further records. Results that share an entry are repeats in other runs, samples, wells, individuals or studies. Brackets with × count equal records among those shown.

The test system of the test is OVCAR-5 complex spheroid (HUVEC/MSC), viability % T/C. Description: Anticancer human tumor OVCAR-5 cell line growth inhibition [Asc].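 Also: spheroids exposed to agents for 7 days before readout; 100% = DMSO vehicle-treated wells.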 The note with it: stronger effect = lower value. The protocol: Multicellular complex tumor spheroid response to apoptosis pathway targeting inhibitors Alrizomadlin, Pelcitoclax, and Dasminapant in combination with a variety of drugs and investigational agents in selected tumor cell lines
The MDM2 inhibitor alrizomadlin, the Bcl-2/Bcl-xL inhibitor pelcitoclax, and the IAPs inhibitor dasminapant were evaluated both individually and in combination with standard of care and investigational anticancer small molecules within a complex spheroid model of solid tumors. . Complex spheroids include a stromal component modeled by human endothelial cells (HUVEC) and fibroblasts modeled by human mesenchymal stem cells (MSCs). The concentration ranges selected for each drug and investigational agent were based upon clinically achievable concentrations if the clinical Cmax of the agent was known.
Compounds. […] If the clinical Cmax for an agent had not been determined, the highest concentration tested was 10 microM. […]

As to `Cc1c(S(C)(=O)=O)c(-c2cc(F)cc(N3CCN(c4ccc(NS(=O)(=O)c5ccc(NC(CCN6CCC(C(=O)OCCCP(=O)(O)O)CC6)CSc6ccccc6)c(S(=O)(=O)C(F)(F)F)c5)cc4)CC3)c2)c(-c2ccc(Cl)cc2)n1C(C)C` (configuration not stated), the viability, T/C (compound alone 0.1 µM) was 90.7, 91.9, 109, 94.3, 82.2, 94.2, 101 (2×), 95.9, 99.3, 89.7, 88.3, 95.7, 82.8% and the viability, T/C (compound alone 10 µM) was 112 (2×), 121, 123, 109, 92.8, 124, 104, 118, 111, 114, 117, 115, 103%.
